According to PubChem BioAssay AID1468 (National Center for Advancing Translational Sciences (NCATS), 2008):
In all, about 280,000 compounds went through this assay and about 1,100 (0.39%) were called active. The inconclusive results got no clear call from the source; some entries with a clear call stand among them for comparison. The call rests on the fitted dose curve; in most records, active means well fitted inhibition curve with a large enough effect; inconclusive means small, poorly fitted or top-dose-only effect, or effect the other way; inactive means flat fitted curve, though single readings scatter. No potency is given beside an inconclusive call; the fits are too rough.

target: Microtubule-associated protein tau (Homo sapiens) (UniProt P10636); experiment: qHTS for Inhibitors of Tau Fibril Formation, Fluorescence Polarization; conditions: K18 P301L tau heparin fibrillization, Alexa594 FP, 6 h; series mostly up to 57.7 µM; further: nearly all actives have a fitted effect of over 55% in size
Method in brief: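 Recombinant K18 P301L […], labeled with Alexa 594 at 0.24 uM over 15 uM unlabeled; heparin inducer 20 uM final; 37 C, 6 hr; FP endpoint.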
On the % scale 0 is the no-effect control and ±100 the full control effect; potency means the concentration at half of the fitted maximal effect; tags describe the fitted curve by direction and shape.

Sequence of UniProt P10636 (P10636 whole entry, looked up): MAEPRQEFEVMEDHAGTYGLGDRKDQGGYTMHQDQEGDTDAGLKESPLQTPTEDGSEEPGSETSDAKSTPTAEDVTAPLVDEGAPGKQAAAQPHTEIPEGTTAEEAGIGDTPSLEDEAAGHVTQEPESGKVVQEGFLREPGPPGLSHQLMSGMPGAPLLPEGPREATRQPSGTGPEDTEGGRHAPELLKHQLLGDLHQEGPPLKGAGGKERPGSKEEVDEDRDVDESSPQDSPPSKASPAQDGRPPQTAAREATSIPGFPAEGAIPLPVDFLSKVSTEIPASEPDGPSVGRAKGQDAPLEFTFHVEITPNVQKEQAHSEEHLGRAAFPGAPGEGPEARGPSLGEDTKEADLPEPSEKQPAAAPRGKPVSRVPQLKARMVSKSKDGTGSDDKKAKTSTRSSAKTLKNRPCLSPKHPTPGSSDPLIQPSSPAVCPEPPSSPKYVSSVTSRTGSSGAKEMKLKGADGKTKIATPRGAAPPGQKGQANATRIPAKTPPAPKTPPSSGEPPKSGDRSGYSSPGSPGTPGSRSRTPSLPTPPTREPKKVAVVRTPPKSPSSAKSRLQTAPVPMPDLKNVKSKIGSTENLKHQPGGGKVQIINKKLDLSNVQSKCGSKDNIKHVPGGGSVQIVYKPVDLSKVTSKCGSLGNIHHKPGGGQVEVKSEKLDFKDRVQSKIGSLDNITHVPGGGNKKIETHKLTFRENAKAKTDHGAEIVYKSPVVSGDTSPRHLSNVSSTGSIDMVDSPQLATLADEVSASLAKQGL

SMILES	Potency	activity, negative = inhibition
Nc1nc(SCC(=O)c2ccc(F)cc2)n[nH]1	inactive	
O=S(=O)(Nc1cc(Sc2ncn[nH]2)c(O)c2ccccc12)c1ccccc1	active: 25.1 µM	
Cn1c(=O)c2c(SCC(=O)NCc3ccc(F)cc3)nc(-c3ccccc3Cl)nc2n(C)c1=O	inconclusive [inhibitor, partial curve, poor fit]	
Cc1ccc(NS(=O)(=O)c2ccc3c(c2)[C@H]2C=CC[C@H]2[C@@H](c2ccc(F)cc2)N3)cc1C	inactive	
O=C(CCN1C(=O)/C(=C\c2ccccc2)SC1=S)NNC(=O)c1cccnc1	inconclusive [activator, partial curve]	
Cc1c(/C=C(\C#N)C(=O)Nc2cccc(Cl)c2)c2ccccc2n1Cc1ccccc1	inconclusive [inhibitor, partial curve]	
COc1cccc(NC(=O)CC2S/C(=N\S(=O)(=O)c3ccccc3)N(c3ccccc3)C2=O)c1 (configuration not stated)	inactive	
c1cnc(SCCOc2cccc3ccccc23)nc1	inconclusive [inhibitor, single point]	
COC(=O)c1cccc(NC(=S)Nc2cc(Cl)ccc2OC)c1	inconclusive [inhibitor, single point]	
CC(C)Cc1nnc(NS(=O)(=O)Cc2ccccc2)s1	inactive	
O=C(Nc1ccc(-c2nc3ccccc3s2)c(OC(=O)c2ccccc2)c1)c1ccccc1	inconclusive [inhibitor, single point]	
O=C(OCCNc1nc(-c2ccccc2)nc2ccccc12)c1ccncc1	inconclusive [inhibitor, partial curve]	
O=C(Nc1ccc(S(=O)(=O)Nc2ccccc2)cc1)c1ccc(CN2CCOCC2)cc1	inconclusive [inhibitor, full curve, poor fit]	
O=C(O)CC1(Cc2nc(-c3cccs3)no2)CCCC1	inconclusive [inhibitor, full curve, poor fit]	
CCOc1ccc(CCNc2ccc3nnc(-c4ccccc4)n3n2)cc1OCC	inactive	
C/C(=N\NC(=O)c1ccc(CN2CCOCC2)cc1)c1ccc([N+](=O)[O-])cc1	inactive	
O=C(CN1CCN(Cc2ccc(Cl)cc2)C1=O)NCCCN1CCN(c2ccc(F)cc2)CC1	inconclusive [activator, partial curve, poor fit]	
Cc1ccc2nc(-c3ccc(NC(=O)c4ccccc4S(C)(=O)=O)cc3)sc2c1	inconclusive [inhibitor, partial curve]	
C(=N\Nc1nc(Nc2ccccc2)nc(Nc2ccccc2)n1)/c1ccncc1	inconclusive [inhibitor, partial curve]	
Cc1c(/C(O)=C2\C(=O)C(=O)N(CCN(C)C)C2c2cccs2)cnn1-c1ccccc1 (configuration not stated)	inconclusive [activator, single point]	
OCCN(Cc1ccccc1)CC(O)COc1ccc(-c2ccccc2)cc1 (configuration not stated)	inconclusive [activator, partial curve, poor fit]	

SMILES	Potency	activity, negative = inhibition
CC(C)CCNC(=O)c1ccc2c(c1)N(Cc1ccccc1F)C(=O)c1ccccc1S2(=O)=O	inconclusive [inhibitor, single point]	
O=c1/c(=C\c2cccnc2)sc2nc3ccccc3n12	inactive	
O=S(=O)(c1ccc(-c2csc(=Nc3ccc(OC(F)(F)Cl)cc3)n2CCCO)cc1)N1CCCC1	inconclusive [activator, partial curve, poor fit]	
COc1ccc(/C=C2\CCn3c2nc2cc(C(=O)O)ccc2c3=O)cc1OC	inactive	
CCCCn1c(NC(=O)c2ccco2)c(S(=O)(=O)c2ccc(C)cc2)c2nc3ccccc3nc21	inconclusive [inhibitor, partial curve]	
CC(c1cccs1)N(C(=O)Nc1ccccc1)C1CCCCC1 (configuration not stated)	inconclusive [inhibitor, single point]	
CCOc1ccc(-c2nnc(SCC(=O)c3ccccc3)n2-c2ccccc2)cc1	inactive	
COC(=O)c1ccc2c(c1)C(C)(C)C(/C=C/c1ccc(O)cc1)=[N+]2C	inconclusive [activator, partial curve]	
CCOc1ccc(NC(=O)C2CCN(S(=O)(=O)c3c(C)noc3/C=C/c3cccs3)CC2)cc1	inactive	
O=S(=O)(c1ccc(N2CCN(CCO)CC2)nc1)N1CCCCC1	inactive	
CC(=O)Nc1nc(=S)ss1	inconclusive [inhibitor, partial curve]	
COc1ccc2cc(CNc3ccc(OC)c(OC)c3)c(=O)n(CC(=O)Nc3ccccc3F)c2c1	inconclusive [activator, partial curve, poor fit]	
Cc1ccc(NC(=O)c2ncoc2-c2ccco2)cc1Cl	inconclusive [inhibitor, partial curve]	
CCN(CC)C(=O)C1CCCN(Cc2ccccc2C(F)(F)F)C1 (configuration not stated)	inconclusive [inhibitor, single point]	
CCOc1ccc(OC(=O)c2c(-c3ccccc3Cl)noc2C)cc1	inconclusive [inhibitor, single point]	
Oc1ccc(C(=S)N2CCCCCC2)cc1	inconclusive [inhibitor, single point]	
S=C(Nc1ccc2nsnc2c1)N1CCCCC1	inconclusive [inhibitor, partial curve]	
NS(=O)(=O)c1ccc(Nc2nc(-c3ccccc3)cs2)cc1	inconclusive [activator, partial curve, poor fit]	
COc1cccc([C@H]2Oc3ccc(OC)cc3/C(=N\OC[C@@H](O)[C@@H]3O[C@@H]4OC(C)(C)O[C@@H]4[C@H]3O)[C@@H]2O)c1		inactive: -0.494% [at 11.6 µM]
Cc1cc(C)c(C)c(S(=O)(=O)ON2C(=O)c3ccccc3C2=O)c1C	inconclusive [inhibitor, single point]	
COc1cc(/C=C/C(=O)Nc2ccc(N3CCCCC3)c(S(=O)(=O)Nc3ccccc3Cl)c2)cc(OC)c1OC	inconclusive [inhibitor, partial curve]	
